According to the supplement of paper PMC11417369:
The list shows a part of the results.

system: PfSIP2 AP2 domain 1 (GST-tagged); test: gcPBM binding intensity (ln(normalized median fluorescence intensity)); higher = stronger DNA binding
Method in brief: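 Using an Agilent 4 × 180k array, primer-extended double-stranded 36-bp intergenic genomic probes and negative controls were exposed for 1 h to GST-fused P. falciparum DNA-binding domains expressed in E. coli. Binding was carried out in 1× PBS with 1% milk, 0.2 mg/ml BSA, 0.5% salmon testes DNA and 0.03% Triton X-100, and protein was detected with Alexa488 anti-GST antibody and a 488 nm scan. Binding intensity is the highest Masliner-normalised natural-log median intensity across replicate spots of either probe orientation.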

Sequence | gcPBM binding intensity (ln)
ATTATATATATTGGAGTGCATATATAGTATTTTATA | 8.45
ATAGAAATCTATTGTGATTATTATTTTATTTTTAGT [XGTACX_negctrl_site605] | 6.72
AAAAAGAATATAAGTAGTACAGTGCATATAATAATT [XGTACX_site617] | 8.39
TTTTACTCTTAAAATAATAAAAAATATTCACATTTA [CACACA_negctrl_site1508] | 6.6
AATTAATGTTTTGTCACACAGTATGATTATATATAT [CACACA_site6143] | 7.4
TATAATTTTTTTAATACACACAAATATTTATATATA [CACACA_site3042] | 6.87
TATATATACATATACGCATGTAAATTCAAAAGTAAA [TGCATGCA_site956] | 7.12
AAGAGAAATGGGCACACACACACATATTATATATAT [CACACA_site1531] | 7.66
TTAGTATATTTTTCCTGTACGTACTCAGATACAAAT [XGTACX_site7397] | 7.61
TACACATTATGTATCATACACACAAATAAATATATA [CACACA_site608] | 7.1
TTAAATAATTTTTAATGTACATTAAATTTATTATTA [XGTACX_site261] | 6.86
AATAATAACAAATGAACACACATATATATGAGCAAA [CACACA_site2121] | 6.86
TTGATATAAAAAGAAAGTACTTTATAGATGTTTATT [XGTACX_site8144] | 6.93
TATAAAAATATATATATATATATATATATATATATA [TGCATGCA_negctrl_site541] | 9.37
TTCTCCATCAGATACTGTACATAATATATATAATAT [XGTACX_site8827] | 7.31
TGTATAACCTGTGTTACACACATTAGAATTTATATA [CACACA_site6393] | 6.82
GCATCATTTATTTGCACACCTATTATATACTTTTTA [CACACA_site2098] | 7.38
TACATAAACTTTATAACACACACTTATATATATATA [CACACA_site1106] | 9.34
TATATAAAGATATATACACACAAAAAAAAAAAAAAA [CACACA_site6778] | 7.06
ACGTATGTATATTACACACATACATATTATTCACTA [CACACA_site204] | 7.03
TATTTATAACATTGTACACACAAAGAAATAATATTA [CACACA_site7422] | 7.29
CATATATAACATATAACACACATACTTAGTATTACA [CACACA_site5674] | 6.98

Sequence | gcPBM binding intensity (ln)
ATGATAAACATGGATACACACATATATATTACATAT [CACACA_site1576] | 7.17
ATAATATTTTATATAGTGCATTTGCTCATTATATAT [GTGCAC_site9528] | 7.96
ACATATATATACTATCGATTAATAAATTTGTTTTTT [CACACA_negctrl_site881] | 7
TGAGTATATATAAATACACACCAAATGTTAATATAT [CACACA_site5022] | 6.8
AGGTTAATCGAAATTGCATGTGACGAAAAATCAAAA [TGCATGCA_site666] | 6.91
CAAATACATGGACACACACACATATACAGATATATA [CACACA_site5854] | 7.18
TTTTTTTTTTTTTTCTGTACTTAAAAAGGGGGAGAA [XGTACX_site3799] | 7.66
CAAACATGTTCAAATTGTACAATAGAAAATATATAT [XGTACX_site1557] | 7.22
TTGAAGTTTGATTGTAGTACGAATTGGTAGTTTTTT [XGTACX_site6854] | 6.73
GATTATATATACAAAAGTACATTATAAAAATTTCAT [XGTACX_site4223] | 6.93
CCCTTAAAATATAAATGTACAAAATTATTTGTATGT [XGTACX_site6164] | 6.98
TTCTTTTAATTACGAGTGCATACCATATGACATTAT [GTGCAC_site9819] | 9.09
GTGAATATTAAAAAATGTACACAATTATATGTATAT [XGTACX_site4834] | 6.96
AGAAAAGAGAGAAAAACATGCACATGATATTATAAA [TGCATGCA_site120] | 6.93
ATAAACATCTAGTGCTGTACACAATTTGATTTTTTT [XGTACX_site3110] | 7.03
TTTAATATGTATTTTTTTTTTTTTTTTTTTTTTTTT [XGTACX_negctrl_site440] | 8.68
CTTTTTTTAGTTAGGTGTACAATTTGTTATTATTAG [XGTACX_site1507] | 7.15
TATAACAGGAATTATATATATATATATATATATTAT [CACACA_negctrl_site911] | 7.48
TTTTTTTTTTTTTTTTGTACATATTTCTTATAAGTG [XGTACX_site6459] | 7.09
GGAAGAATATATAGGACACACATACAATAATAAATA [CACACA_site6124] | 7.05
TTTTTTTTTTTTTTTTTGCAATATATTTTAAAAAAG [CACACA_negctrl_site25] | 6.99
TTTTTTTTTTTTTTTTTTTTTTGTGAAACTAAGTAA [CACACA_negctrl_site273] | 6.88
